Experimental data taken from article PMC7900159.
No constants are given. Whether binding was seen depends on the method and setting. For some of these results: In cells and extracts the contact can be indirect. Some entries that bind do so weakly or less than the wild type. For some of these results: Sequences can lack the tags named with a protein. Each block holds one molecule with its values, some of them ahead of it.

Key:
[1] = target: T1, FLAG-tagged-flotillin-1 (mouse) (UniProt O08917); test: co-IP; HEK 293T cells transfected; 1% NP-40 lysis buffer with 150 mM NaCl; IP with anti-Flag beads, washes with 500 mM NaCl; immunoblot with anti-GFP and anti-Flag
T1 sequence: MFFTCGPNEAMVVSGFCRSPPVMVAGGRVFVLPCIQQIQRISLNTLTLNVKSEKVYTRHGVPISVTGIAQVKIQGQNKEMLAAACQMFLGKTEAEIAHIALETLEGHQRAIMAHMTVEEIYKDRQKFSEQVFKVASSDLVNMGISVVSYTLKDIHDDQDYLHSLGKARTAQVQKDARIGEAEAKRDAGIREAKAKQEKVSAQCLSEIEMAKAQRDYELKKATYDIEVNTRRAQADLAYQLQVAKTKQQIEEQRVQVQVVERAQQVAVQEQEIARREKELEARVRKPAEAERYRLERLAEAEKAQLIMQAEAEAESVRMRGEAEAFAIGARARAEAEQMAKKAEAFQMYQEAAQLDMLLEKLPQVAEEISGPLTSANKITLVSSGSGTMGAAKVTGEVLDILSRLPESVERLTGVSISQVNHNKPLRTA

[2] = target: Flag-tagged full-length TRPV2 (rat) (UniProt Q9WUD2); test: as above
[3] = target: T2, TRPV2 N-terminus (aa 1–387) fused to the GAL4 DNA binding domain (mouse) (UniProt Q9WTR1); test: two-hybrid; Matchmaker GAL4 screen of a mouse DRG cDNA library (pGADT7, AH109) with the bait in pGBKT7 (Y187); mating, selection on TDO then QDO with X-α-Gal, 30°C
T2 sequence: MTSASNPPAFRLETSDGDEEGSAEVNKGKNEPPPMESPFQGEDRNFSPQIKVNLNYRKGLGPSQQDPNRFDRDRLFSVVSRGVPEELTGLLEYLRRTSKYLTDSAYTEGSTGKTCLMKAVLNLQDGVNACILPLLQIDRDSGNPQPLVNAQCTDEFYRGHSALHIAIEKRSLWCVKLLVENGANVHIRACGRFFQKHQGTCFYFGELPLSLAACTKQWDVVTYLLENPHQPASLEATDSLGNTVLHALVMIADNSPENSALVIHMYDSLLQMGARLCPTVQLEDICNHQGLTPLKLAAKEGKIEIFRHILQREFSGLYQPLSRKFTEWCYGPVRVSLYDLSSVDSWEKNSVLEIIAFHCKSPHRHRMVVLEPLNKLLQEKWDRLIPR

[4] = target: T3, TRPV2, endogenous in mouse DRG neurons (mouse (endogenous in DRG neurons)) (UniProt Q9WTR1); test: co-IP; endogenous proteins of mouse DRG neurons; IP with anti-TRPV2, anti-Flotillin-1 or IgG as a control, immunoblot
T3 sequence: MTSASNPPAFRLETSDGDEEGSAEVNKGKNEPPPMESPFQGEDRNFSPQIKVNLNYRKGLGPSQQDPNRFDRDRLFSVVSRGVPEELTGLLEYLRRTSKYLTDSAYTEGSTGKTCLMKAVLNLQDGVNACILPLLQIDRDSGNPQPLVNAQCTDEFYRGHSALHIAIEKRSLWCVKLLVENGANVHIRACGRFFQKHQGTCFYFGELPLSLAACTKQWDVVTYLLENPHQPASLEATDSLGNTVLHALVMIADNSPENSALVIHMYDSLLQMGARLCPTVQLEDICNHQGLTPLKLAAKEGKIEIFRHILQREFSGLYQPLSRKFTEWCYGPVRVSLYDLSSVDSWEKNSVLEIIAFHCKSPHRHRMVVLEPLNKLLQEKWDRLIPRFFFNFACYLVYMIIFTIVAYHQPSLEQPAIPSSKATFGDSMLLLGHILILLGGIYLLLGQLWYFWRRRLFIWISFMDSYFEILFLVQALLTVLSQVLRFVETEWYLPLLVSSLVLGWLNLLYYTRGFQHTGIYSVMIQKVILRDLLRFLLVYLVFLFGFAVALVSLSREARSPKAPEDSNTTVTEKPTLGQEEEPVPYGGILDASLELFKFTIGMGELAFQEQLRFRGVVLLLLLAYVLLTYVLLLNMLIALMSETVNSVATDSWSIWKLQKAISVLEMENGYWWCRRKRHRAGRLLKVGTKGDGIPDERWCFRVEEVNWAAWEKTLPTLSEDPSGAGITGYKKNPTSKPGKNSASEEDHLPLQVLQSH

[5] = target: Flag-tagged full-length TRPV2 (rat) (UniProt Q9WUD2); test: surface biotinylation with NeutrAvidin pull-down; HEK 293T cells co-expressing Flag-TRPV2 and flotillin-1-GFP; surface proteins labelled with Sulfo-NHS-LC-Biotin, isolated from lysates with NeutrAvidin agarose beads, immunoblot
[6] = target: Flag-tagged TRPV1 (rat) (UniProt O35433); test: co-IP; HEK 293T cells transfected; 1% NP-40 lysis buffer with 150 mM NaCl; IP with anti-Flag beads, washes with 500 mM NaCl; immunoblot with anti-GFP and anti-Flag
[7] = target: T4, flotillin-1, endogenous in mouse DRG neurons (mouse (endogenous in DRG neurons)) (UniProt O08917); test: co-IP; endogenous proteins of mouse DRG neurons; IP with anti-TRPV2, anti-Flotillin-1 or IgG as a control, immunoblot
T4 sequence: T1 sequence

binding [1]: no binding
Molecule: GFP-tagged TRPV2 pore region (aa 521–649) (from UniProt Q9WUD2 521-649) (domain or fragment)

binding [1]: binds
Molecule: GFP-tagged TRPV2 transmembrane domains 1–4 (aa 388–520) (from UniProt Q9WUD2 388-520) (domain or fragment)

binding [1]: no binding
Molecule: GFP-tagged TRPV2 C-terminus (aa 650–762) (from UniProt Q9WUD2 650-761) (domain or fragment)

binding [1]: binds
Molecule: GFP-tagged TRPV2 N-terminus (aa 1–387) (from UniProt Q9WUD2 1-387) (domain or fragment)

binding [2]: no binding
B1: GFP-tagged flotillin-2 (protein, UniProt Q60634 1-428)
chain: MGNCHTVGPNEALVVSGGCCGSDYKQYVFGGWAWAWWCISDTQRISLEIMTLQPRCEDVETAEGVALTVTGVAQVKIMTEKELLAVACEQFLGKNVQDIKNVVLQTLEGHLRSILGTLTVEQIYQDRDQFAKLVREVAAPDVGRMGIEILSFTIKDVYDKVDYLSSLGKTQTAVVQRDADIGVAEAERDAGIREAECKKEMLDVKFMADTKIADSKRAFELQKSAFSEEVNIKTAEAQLAYELQGAREQQKIRQEEIEIEVVQRKKQIAVEAQEILRTDKELIATVRRPAEAEAHRIQQIAEGEKVKQVLLAQAEAEKIRKIGEAEAAVIEAMGKAEAERMKLKAEAYQKYGDAAKMALVLEALPQIAAKISAPLTKVDEIVVLSGDNSKVTSEVNRLLAELPASVHALTGVDLSKIPLIKNATGAQV

binding [3]: binds
B2: flotillin-1 library clone, amino acid residues 1–249, fused to the GAL4 activation domain (domain or fragment, UniProt O08917 1-249)
chain: MFFTCGPNEAMVVSGFCRSPPVMVAGGRVFVLPCIQQIQRISLNTLTLNVKSEKVYTRHGVPISVTGIAQVKIQGQNKEMLAAACQMFLGKTEAEIAHIALETLEGHQRAIMAHMTVEEIYKDRQKFSEQVFKVASSDLVNMGISVVSYTLKDIHDDQDYLHSLGKARTAQVQKDARIGEAEAKRDAGIREAKAKQEKVSAQCLSEIEMAKAQRDYELKKATYDIEVNTRRAQADLAYQLQVAKTKQQI

binding [2]: no binding
B3: flotillin-1 Flotillin domain (aa 190–427) fused with GFP (domain or fragment, UniProt O08917 190-427)
chain: REAKAKQEKVSAQCLSEIEMAKAQRDYELKKATYDIEVNTRRAQADLAYQLQVAKTKQQIEEQRVQVQVVERAQQVAVQEQEIARREKELEARVRKPAEAERYRLERLAEAEKAQLIMQAEAEAESVRMRGEAEAFAIGARARAEAEQMAKKAEAFQMYQEAAQLDMLLEKLPQVAEEISGPLTSANKITLVSSGSGTMGAAKVTGEVLDILSRLPESVERLTGVSISQVNHNKPLRT

binding [4]: binds
B4: flotillin-1, endogenous in mouse DRG neurons (protein, UniProt O08917 1-428)
chain: T1 sequence

binding [5]: binds
binding [2]: binds
binding [6]: no binding
B5: flotillin-1-GFP (protein, UniProt O08917 1-428)
chain: T1 sequence

binding [2]: binds
B6: flotillin-1 SPFH domain (aa 1–189) fused with GFP (domain or fragment, UniProt O08917 1-189)
chain: MFFTCGPNEAMVVSGFCRSPPVMVAGGRVFVLPCIQQIQRISLNTLTLNVKSEKVYTRHGVPISVTGIAQVKIQGQNKEMLAAACQMFLGKTEAEIAHIALETLEGHQRAIMAHMTVEEIYKDRQKFSEQVFKVASSDLVNMGISVVSYTLKDIHDDQDYLHSLGKARTAQVQKDARIGEAEAKRDAGI

binding [7]: binds
B7: TRPV2, endogenous in mouse DRG neurons (protein, UniProt Q9WTR1 1-756)
chain: T3 sequence
